# Results taken from article PMC4336329 (PLoS ONE, 2015).
# The campaign covered roughly 310,000 compounds. About 14,000 (4.5%) showed an effect of 50% or more. The effect is printed as a negative number. This is one part of the list.
# Target: human ether-à-go-go-related gene (hERG) potassium channel (human, UniProt Q12809)
# Test: primary screen, population patch clamp on CHO cells stably expressing hERG
# 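Also: peak tail current of the secondary pulse compared with the same well before compound.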
# Sequence of human ether-à-go-go-related gene (hERG) potassium channel (Q12809 whole entry, looked up): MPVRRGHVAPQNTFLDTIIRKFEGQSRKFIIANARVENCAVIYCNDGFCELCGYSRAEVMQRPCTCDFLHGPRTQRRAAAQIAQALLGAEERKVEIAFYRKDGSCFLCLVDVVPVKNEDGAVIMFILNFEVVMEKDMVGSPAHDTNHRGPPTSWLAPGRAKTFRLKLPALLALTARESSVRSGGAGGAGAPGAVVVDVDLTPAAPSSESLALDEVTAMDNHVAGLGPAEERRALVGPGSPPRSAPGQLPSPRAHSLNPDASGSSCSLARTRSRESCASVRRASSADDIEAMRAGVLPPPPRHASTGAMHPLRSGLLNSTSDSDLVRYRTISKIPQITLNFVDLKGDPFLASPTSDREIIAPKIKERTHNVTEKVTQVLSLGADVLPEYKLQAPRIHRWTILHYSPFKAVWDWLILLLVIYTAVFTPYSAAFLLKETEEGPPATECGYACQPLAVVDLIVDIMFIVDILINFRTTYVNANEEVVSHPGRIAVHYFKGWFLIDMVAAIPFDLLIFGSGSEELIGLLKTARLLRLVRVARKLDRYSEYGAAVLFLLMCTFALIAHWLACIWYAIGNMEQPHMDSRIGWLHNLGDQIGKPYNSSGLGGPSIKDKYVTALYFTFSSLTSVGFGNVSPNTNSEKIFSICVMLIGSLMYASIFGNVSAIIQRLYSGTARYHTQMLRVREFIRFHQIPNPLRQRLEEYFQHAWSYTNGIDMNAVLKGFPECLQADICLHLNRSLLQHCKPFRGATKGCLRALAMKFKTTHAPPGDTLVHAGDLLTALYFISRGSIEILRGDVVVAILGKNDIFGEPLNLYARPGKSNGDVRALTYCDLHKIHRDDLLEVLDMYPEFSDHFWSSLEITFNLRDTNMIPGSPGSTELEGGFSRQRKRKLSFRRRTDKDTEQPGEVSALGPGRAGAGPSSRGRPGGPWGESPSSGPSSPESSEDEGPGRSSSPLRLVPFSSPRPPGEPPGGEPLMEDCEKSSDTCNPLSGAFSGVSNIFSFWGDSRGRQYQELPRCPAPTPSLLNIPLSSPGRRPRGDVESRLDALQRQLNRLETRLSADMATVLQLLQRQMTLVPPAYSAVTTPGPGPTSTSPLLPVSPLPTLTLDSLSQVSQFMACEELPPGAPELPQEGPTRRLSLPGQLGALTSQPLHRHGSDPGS
row,SMILES,"hERG current change (%, negative = inhibition) at 10uM [%]"
1,Cc1ccccc1CC1(CO)CCCN(C(=O)CCCN2CCCCC2=O)C1 (stereo not shown),13
2,Clc1ccc2c(c1)[C@H]1OCC[C@H]1[C@@H](c1ccco1)N2,-4.03
3,O=C(NCCN1CCOCC1)c1ccc(Cl)cc1,16
4,CN(CCC1CCCCO1)C(=O)CCc1nnc(Cc2c[nH]c3ccccc23)o1 (stereo not shown),10.2
5,CC1=C(C)CC2(SC1)C(=O)N(c1ccccc1)N=C2N (stereo not shown),-3.72
6,CCC(NC(=O)c1ccccc1Br)c1ccccc1 (stereo not shown),1.89
7,CCOC(=O)Cc1c(C)nc(N)[nH]c1=O,15.3
8,O=C(CC1Oc2ccccc2NC1=O)NCCCN1CCN(Cc2ccccc2)CC1 (stereo not shown),-17.5
9,Cc1cc(Nc2ccc(O)cc2)n2c(nc3ccccc32)c1C#N,16.6
10,CCNC(=O)COc1ccc2ccccc2c1,15.6
11,Cc1nccn1CC(=O)N/N=C/c1c[nH]c2ccccc12,9.88
12,CC(=O)c1ccc(N2CCN(CC(O)COCc3ccco3)CC2)cc1 (stereo not shown),-56.3
13,Cc1cc(C)nc(N(C#N)Cc2ccccc2)n1,-4.34
14,COc1ccccc1C(=O)NC(=O)COC(=O)c1cccc(OC(F)F)c1,-22.5
15,COc1ccc(CC(=O)N(C)CC(=O)Nc2cccc(F)c2)cc1S(=O)(=O)N1CCOCC1,13.7
16,OC(CCN1CCOCC1)(c1ccc(Cl)cc1)C1CCCCC1 (stereo not shown),-18.6
17,FC(F)(F)c1nnc2c3ccccc3c(Cl)nn12,21.6
18,CC(C)OC(=O)Nc1ccc2c(c1)N(C(=O)N1CCN(C)CC1)c1ccccc1CC2.O=C(O)C(=O)O,-17.9
19,COc1cccc(CN2CCNC(=O)C2CC(=O)NCc2cn3ccccc3n2)c1OC (stereo not shown),32
20,O=C(N1CCOCC1)N(Cc1ccco1)CC1CCCO1 (stereo not shown),-48.5
21,Cc1onc(-c2c(Cl)cccc2Cl)c1C(=O)NCCN1CCOCC1,9.36
22,Cn1c(SCC(=O)NCC2CCCO2)ncc(C(=O)Nc2ccc(Cl)cc2)c1=O (stereo not shown),-36.3

row,SMILES,"hERG current change (%, negative = inhibition) at 10uM [%]"
1,O=C(Cn1nnnc1CN1CCOCC1)N1CCC(c2cccc(Cl)c2)C1 (stereo not shown),1.15
2,O=C(Nc1ccccc1)c1nccn1Cc1ccc(F)cc1,-10.9
3,CC(=O)N1N=C(c2ccccc2)CC1c1cn(Cc2ccccc2)c2ccccc12 (stereo not shown),-13.6
4,Cc1ccc(OCC(=O)Nc2ccc(N3CCN(S(C)(=O)=O)CC3)cc2)c(C)c1,10.9
5,Cc1ccc(N(C(=O)CNC(=O)c2cccs2)C(C(=O)NC2CCCC2)c2ccncc2)cc1 (stereo not shown),9.41
6,O=C(CSc1nnc(-c2cccs2)n1C1CC1)NC1CCS(=O)(=O)C1 (stereo not shown),-6.43
7,O=C(NCCN1CCOCC1)[C@H](Cc1ccccc1)N1C(=O)c2ccccc2C1=O,-2.06
8,O=C(NNC(=O)c1csc(N2CCOCC2)n1)c1cccnc1,4.3
9,CCN1CCN(CCNC(=O)c2ccc3nc(-c4cccc(C)c4)c(-c4cccc(C)c4)nc3c2)CC1,-73.9
10,CC(=O)c1ccc(NC(=O)C(C)OC(=O)c2ccc(NS(=O)(=O)c3ccc(F)c(F)c3)cc2)cc1 (stereo not shown),-6.98
11,Nc1nonc1-n1nnc(C(=O)N/N=C/c2c[nH]c3ccccc23)c1-c1ccccc1,12.5
12,COc1ccc2nc(COC(=O)c3ccco3)c(C(C)=O)[n+]([O-])c2c1,1.79
13,COc1ccc(CCNC(=O)C(C)SCc2ccccc2)cc1 (stereo not shown),-12.8
14,O=C(O)C(=O)O.O=C(c1ccncc1)N1CCN(C2CCC(c3ccccc3)CC2)CC1 (stereo not shown),-63.4
15,CCOc1ccc(C(=O)OCC(=O)NCc2ccccc2)cc1OCC,-14.2
16,Cc1ccc(NC(=O)COC(=O)c2ccco2)cc1C,2.35
17,COc1ccc(C)cc1-n1nnnc1SCC(=O)c1cc(C)n(Cc2ccco2)c1C,-9.73
18,CC1CN(C(=O)N(C)C)CCN1C(=O)N(C)C (stereo not shown),9.65
19,N#C/C(=C/c1ccc(CNC(=O)C(=O)Nc2cc(Cl)cc(Cl)c2)o1)C(=O)NCc1cccnc1,-0.368
20,CCOc1ccccc1NC(=O)C1COc2ccccc2O1 (stereo not shown),14.4
21,Cc1cc2n(n1)C(c1sccc1C)Nc1ccccc1-2 (stereo not shown),-15.9
22,CN(C)c1ncc(C2=C(Cl)C(=O)C(N3CCCC3)=C(Cl)C2=O)s1,0.566

row,SMILES,"hERG current change (%, negative = inhibition) at 10uM [%]"
1,O=C(Nc1cccc(F)c1)C1CCN(C(=O)c2ccco2)CC1,-26.4
2,C=CCn1c(CSc2nnc(-c3ccccc3)n2C)n[nH]c1=S,16.7
3,COc1cc(C(=O)Nc2cc(C)cc(C)c2)c(-n2cnnn2)cc1OC,14.7
4,Cc1cc(Br)ccc1NC(=O)C1CCN(C(=O)c2ccco2)CC1,-19.8
5,CCOC(=O)Cn1nnc2c(sc3nc4c(c(-c5ccc(Cl)cc5)c32)CCC4)c1=O,-6.78
6,CCCCC(=O)Nc1ccc(NC(=O)c2ccc(C)c([N+](=O)[O-])c2)cc1OC,-2.74
7,O=C(CCc1ccccc1)Nc1nncs1,15.9
8,O=C(N/N=C/c1ccncc1)/C(=C/c1ccccc1)NC(=O)c1ccccc1,-2.14
9,C=CCN1C(=O)C(O)(CC(=O)c2c(C)n[nH]c2C)c2cc(Br)ccc21 (stereo not shown),14.3
10,O=C(NC(Cc1ccccc1)C(=O)O)/C(=C/c1ccc([N+](=O)[O-])cc1)NC(=O)c1ccccc1Br (stereo not shown),3.63
11,Fc1ccc(C2N3CCCN23)cc1 (stereo not shown),11.6
12,COc1ccccc1N1CCN(CCN2C(=O)C3CCCN3C2=O)CC1 (stereo not shown),12
13,O=C(CCNC(=O)c1ccc(Br)o1)NCc1ccccc1Cl,-2.73
14,CCNC(=O)CSc1nc2ccccc2c(=O)n1OC,7.09
15,COc1cc(-c2nc3c(c(C)nn3-c3ccccc3)c3cc(OC)c(OC)cc23)ccc1O,6.95
16,Cc1[nH]c2ccccc2c1/C=N/NC(=S)NC(C)C,12.1
17,Cc1cc(F)ccc1S(=O)(=O)N1CCCCC1CCNC(=O)C(=O)NCc1ccccn1 (stereo not shown),-61.4
18,CCn1c(SC(C)C(=O)Nc2ccc3c(c2)OCCO3)nnc1C1CC1 (stereo not shown),10.7
19,O=C(CNC(=O)c1ccc(F)cc1)N/N=C/c1ccc(O)c([N+](=O)[O-])c1,-1.79
20,CCC(Oc1ccccc1)C(=O)NC1C(=O)N2C1SC(C)(C)C2C(=O)[O-].[K+] (stereo not shown),2.88
21,Cc1cc(Cl)ccc1OCC(=O)NCCOc1nc(N2CCOCC2)nc(N2CCOCC2)n1,-43.5
22,COc1ccc(-c2noc(N3CCC(C(=O)NC(C)c4ccccc4)CC3)n2)cc1 (stereo not shown),-30.6

row,SMILES,"hERG current change (%, negative = inhibition) at 10uM [%]"
1,CN(C(=O)COC(=O)c1nc(Cl)ccc1Cl)c1ccccc1,17.6
2,CC1(C)CC(=O)C(C=NCc2ccc3c(c2)OCO3)=C(O)C1,3.48
3,CCCSc1nc2c(cnn2-c2ccc(C)cc2)c(=O)[nH]1,11.5
4,Cc1ncc(S(=O)(=O)c2ccc(Cl)cc2)c(-c2ccccc2)n1,-0.432
5,CCOc1ccc(-n2c(SCC(=O)O)nc3sc4c(c3c2=O)CCCC4)cc1,18.5
6,N#Cc1c(NC(=O)C(=O)NCCCN2CCOCC2)sc2c1CCCC2,-14.7
7,O=C(NN1C(=O)NC2(CCCCC2)C1=O)c1ccc(Cl)s1,12.9
8,O=C(CCCn1c(SCC(=O)c2ccc(Cl)cc2)nc2ccccc2c1=O)NCc1ccco1,3.21
9,COC(=O)CP(=O)(c1ccccc1)c1ccccc1,15.2
10,O=C1/C(=C\c2ccco2)CCC/C1=C\c1ccco1,2.1
11,CCOC(=O)c1[nH]c(C)c(C(=O)NCc2cccnc2)c1C,-0.0907
12,O=c1c(C=Nc2ccc(Oc3ccccc3)cc2)c[nH]n1-c1cccc(Cl)n1,5.05
13,Nc1ccc2oc(CCc3ccccc3)nc2c1,-4.16
14,CCOc1ccc(N/C=C/C(=O)c2ccc(C)cc2)c([N+](=O)[O-])c1,7.59
15,CC(C(=O)NC1CCCCCC1)c1ccc([N+](=O)[O-])cc1 (stereo not shown),4.76
16,COc1cccc(NC(=S)N2C3CCCC2CC(NC(=O)C2CC2)C3)c1 (stereo not shown),9.08
17,COCc1cc(C)nc(OCC(=O)N/N=C/c2cc(C)n(-c3c(C)cccc3C)c2C)c1C#N,2.09
18,CCOc1ccccc1N(C)C(=O)c1ccc2c(=O)n3c(nc2c1)CCCCC3,0.237
19,CCn1c(CN2CCCCC2)nc2cc(S(=O)(=O)N3CCCCC3)ccc21,-19
20,CC(C)CCNC(=O)Cn1c(NCCC(C)C)nc2c1c(=O)n(C)c(=O)n2C,-6.85
21,COc1ccccc1N1CCN(C(=O)C2CCN(C(=O)c3cccc(Cl)c3)CC2)CC1,-0.573
22,COc1ccc(N2CCN(S(=O)(=O)CCNC(=O)C3CCCCC3)CC2)cc1,5.98
